{
  "source": "the supplement of paper PMC12645437",
  "about": "“Orthogonal IMiD-Degron Pairs Induce Selective Protein Degradation in Cells” (ACS Chemical Biology, 2025)",
  "note": "The other results are listed elsewhere or left out.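 Note: jurkat cells carrying a lentiviral library of mutant zinc finger degrons fused to EGFP plus mCherry, mCherry+ cells FACS sorted, degron abundance counted by next-generation sequencing.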",
  "data": [
    {"target": "no compound (DMSO)", "assay": "log2 fold change of degron read counts, EGFP-low vs EGFP+ sorted cells; higher = lower degron-EGFP level without compound (poor expression or instability)", "details": "compound: DMSO control; 18 h", "values": [
      {"sequence": "FDCPICGRWFTQKGNLLRHIKL", "log2 fold change of degron read counts": 0.978},
      {"sequence": "LYCPICGFKCTQKGNLLRHIKL", "log2 fold change of degron read counts": 0.191},
      {"sequence": "FECEICGAAFTQKGNLLRHIKL", "log2 fold change of degron read counts": -2.13},
      {"sequence": "FICSVCGHGFTQKGNLLRHIKL", "log2 fold change of degron read counts": -0.726},
      {"sequence": "FLCNICGAQFTQKGNLLRHIKL", "log2 fold change of degron read counts": -0.505},
      {"sequence": "LCCNQCGFMCTQKGNLLRHIKL", "log2 fold change of degron read counts": 0.802},
      {"sequence": "FMCNQCGHRFTQKGNLLRHIKL", "log2 fold change of degron read counts": -0.918},
      {"sequence": "FRCEQCGAFFTQKGNLLRHIKL", "log2 fold change of degron read counts": -0.762},
      {"sequence": "FYCPQCGAMFTQKGNLLRHIKL", "log2 fold change of degron read counts": 0.157},
      {"sequence": "FFCPICGAWFTQKGNLLRHIKL", "log2 fold change of degron read counts": 1.47},
      {"sequence": "LICNQCGFKCTQKGNLLRHIKL", "log2 fold change of degron read counts": -0.327},
      {"sequence": "FNCPICGHTFTQKGNLLRHIKL", "log2 fold change of degron read counts": -0.693},
      {"sequence": "FDCPICGAYFTQKGNLLRHIKL", "log2 fold change of degron read counts": -0.294},
      {"sequence": "FRCNVCGATFTQKGNLLRHIKL", "log2 fold change of degron read counts": -0.602}
    ]}
  ]
}
